Experimental data published in PubChem BioAssay AID588591 (National Center for Advancing Translational Sciences (NCATS), 2011).
Out of some 390,000 compounds screened, about 4,700 (1.2%) were called active. The inconclusive results got no clear call from the source; some entries with a clear call stand among them for comparison. Calls follow the shape of the dose curve; as a rule, active = well fitted inhibition curve with a large enough effect; inconclusive = small, poorly fitted or top-dose-only effect, or another doubt; inactive = no such curve, though single readings can be large or run the other way. Potencies beside an inconclusive call are fits to weak or partial responses and may not hold up.

Target: DNA polymerase eta (Homo sapiens) (UniProt Q9Y253)
Assay: qHTS for Inhibitors of Polymerase Eta
Details: recombinant Pol eta, fluorescent DNA replication assay; series mostly up to 114 µM
Procedure, shortened: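 Pol eta (10 nM) was preincubated with compounds for 15 min at room temperature, after which fluorescent replication substrate (50 nM final) was added to start the reaction. Fluorescence was read kinetically at 0 and 10 min.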
Potency is read from the fitted curve at half-maximal effect; tags tell the direction and shape of the fitted curve.

UniProt Q9Y253, sequence (Q9Y253 whole entry, looked up): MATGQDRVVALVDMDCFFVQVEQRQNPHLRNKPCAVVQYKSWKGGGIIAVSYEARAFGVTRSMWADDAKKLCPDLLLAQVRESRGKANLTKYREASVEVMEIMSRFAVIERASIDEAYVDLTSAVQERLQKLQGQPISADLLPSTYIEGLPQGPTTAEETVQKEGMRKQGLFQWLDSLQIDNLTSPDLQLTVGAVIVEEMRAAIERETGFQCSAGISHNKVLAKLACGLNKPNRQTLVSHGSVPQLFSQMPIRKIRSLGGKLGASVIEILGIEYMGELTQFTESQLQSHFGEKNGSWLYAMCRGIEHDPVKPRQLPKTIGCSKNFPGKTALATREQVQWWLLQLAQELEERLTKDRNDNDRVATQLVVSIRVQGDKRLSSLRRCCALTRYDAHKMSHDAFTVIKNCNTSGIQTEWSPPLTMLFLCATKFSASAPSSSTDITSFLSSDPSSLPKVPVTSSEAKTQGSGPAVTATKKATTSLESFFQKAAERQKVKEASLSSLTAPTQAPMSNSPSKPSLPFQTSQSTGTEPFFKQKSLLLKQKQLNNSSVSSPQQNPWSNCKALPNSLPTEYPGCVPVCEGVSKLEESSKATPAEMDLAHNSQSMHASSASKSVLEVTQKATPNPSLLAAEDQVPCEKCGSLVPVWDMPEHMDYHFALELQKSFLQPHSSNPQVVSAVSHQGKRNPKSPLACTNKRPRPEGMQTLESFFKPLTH

Row | Structure (SMILES) | Potency
1 | O=C(NCCn1cc(SCc2ccc(C(F)(F)F)cc2)c2ccccc21)c1cccs1 | inconclusive: 3.16 µM [inhibitor, partial curve, poor fit]
2 | COc1ccc(Cl)cc1NC(=O)CN1C(=O)NC(Cc2c[nH]c3ccccc23)C1=O (stereo not drawn) | inconclusive: 56.2 µM [inhibitor, partial curve, poor fit]
3 | Cc1ccc(NC(=O)Cc2ccc(-n3cccc3)cc2)c(C)c1 | inconclusive: 15.8 µM [inhibitor, partial curve, poor fit]
4 | NC(=O)C1CCN(C(=O)c2ccccc2NC(=O)c2nsc3ccccc23)CC1 | inactive
5 | O=C(c1ccco1)N1CCN(C(=O)C2CCCc3c2[nH]c2ccc(Cl)cc32)CC1 (stereo not drawn) | inconclusive: 39.8 µM [inhibitor, partial curve, poor fit]
6 | Cc1ccn2c(=O)nc(SCC(=O)Nc3ccc4c(c3)OCO4)nc2c1 | inconclusive: 56.2 µM [inhibitor, partial curve, poor fit]
7 | COc1cc(/C=C2\COC/C(=C\c3cc(OC)c(OC)c(OC)c3)C2=O)cc(OC)c1OC | inconclusive: 56.2 µM [inhibitor, partial curve, poor fit]
8 | O=C(O)CN1C(=O)/C(=C\c2cc(Br)ccc2OCc2ccc(Cl)cc2)SC1=S | active: 22.4 µM
9 | Cc1ccc(NC(=O)c2nc3nccc(C)n3n2)cc1S(=O)(=O)N1CCCCC1 | inactive
10 | Cc1ccc(OCC(=O)Nc2ccc(NC(=O)c3ccco3)cc2)c(C)c1 | inconclusive: 79.4 µM [inhibitor, partial curve]
11 | O=C(CSc1c2c(nc3ccc(Cl)cc13)CCCC2)N1CCN(c2ccc(Cl)cc2)CC1 | inactive
12 | CC(C)(C)c1nc(NCCO)c2nnn(Cc3ccccc3)c2n1 | inconclusive: 79.4 µM [inhibitor, partial curve, poor fit]
13 | COc1ccc(S(=O)(=O)NNC(=O)Cc2csc(C)n2)cc1[N+](=O)[O-] | inconclusive: 56.2 µM [inhibitor, partial curve, poor fit]
14 | CN1C(=O)CSc2ccc(NC(=O)N3CCN(c4ccccn4)CC3)cc21 | inconclusive: 31.6 µM [inhibitor, single point]
15 | CC(C)Oc1ccc(CCNC(=O)C2CCC(=O)N(Cc3cccc(F)c3)C2)cc1 (stereo not drawn) | inconclusive: 79.4 µM [inhibitor, partial curve, poor fit]
16 | CCN(CC)S(=O)(=O)c1ccc(OC)c(NC(=O)/C=C/c2ccco2)c1 | active: 79.4 µM
17 | COc1cc(C(C#N)N2N=C(c3ccccc3)CC2c2ccccc2)ccc1O (stereo not drawn) | inconclusive: 44.7 µM [inhibitor, partial curve, poor fit]
18 | COc1ccccc1C(=O)NC1(C(F)(F)F)C(=O)NC(C)=C1C#N (stereo not drawn) | inactive
19 | COc1ccccc1N1CCN(C(=O)C2CCN(S(=O)(=O)c3cccs3)CC2)CC1 | inactive

Row | Structure (SMILES) | Potency
20 | O=C(O)COCC(=O)N1CCN(C(c2ccccc2)c2ccccc2)CC1 | inconclusive: 56.2 µM [inhibitor, partial curve, poor fit]
21 | COc1ccc(Cl)cc1S(=O)(=O)Nc1ccc2c(c1)n(C)c(=O)n2C | inactive
22 | Cc1c(/C=C2\SC(=Nc3cccc(C(=O)O)c3)NC2=O)c2ccccc2n1C | active: 79.4 µM
23 | COc1cccc(CNc2ncc(C(=O)Nc3cc(OC)c(OC)c(OC)c3)c(C)n2)c1 | inconclusive: 100 µM [inhibitor, partial curve, poor fit]
24 | Nc1ccc(C(=O)OCC(=O)Nc2cccc(S(=O)(=O)NC3=NCCCCC3)c2)cc1[N+](=O)[O-] | inactive
25 | CCC1=NN2C(=N)/C(=C/c3ccc(OS(=O)(=O)c4ccccc4)cc3)C(=O)N=C2S1 | active: 44.7 µM
26 | COc1ccc(CC(=O)Nc2ccc(-c3noc(-c4cc(OC)c(OC)c(OC)c4)n3)cc2)cc1 | inconclusive: 28.2 µM [inhibitor, partial curve, poor fit]
27 | NC(=O)CCCCC(=O)OCCCc1cccs1 | inconclusive: 31.6 µM [inhibitor, single point]
28 | CCOC(=O)c1[nH]c2c(c1C)C(=O)CC(c1ccco1)C2 (stereo not drawn) | active: 20 µM
29 | CC(=O)Oc1cccc2c1C(=O)c1c(OC(C)=O)cc(C(=O)O)cc1C2=O | inactive
30 | O=C(NC(Cc1ccccc1)C(=O)O)/C(=C\c1ccco1)NC(=O)c1ccccc1 (stereo not drawn) | active: 14.1 µM
31 | COc1ccccc1-c1nnc2n1N=C(c1ccc(O)c(O)c1)CS2 | active: 8.91 µM
32 | Cc1ccc(NC(=S)N/N=C/c2c(Cl)cccc2Cl)c(C)c1 | inconclusive: 89.1 µM [inhibitor, partial curve, poor fit]
33 | Cc1cc(-c2ccccc2)nc2cc(C(=O)Nc3ccc(Cl)c(Cl)c3)nn12 | inconclusive: 89.1 µM [inhibitor, partial curve, poor fit]
34 | Cc1cccc2c1-c1sc(C(=O)NCCCN3CCC(C)CC3)cc1CO2 | inconclusive: 79.4 µM [inhibitor, partial curve, poor fit]
35 | O=C(O)c1cc(Cl)ccc1-c1ccc(/C=C/c2cc(C(F)(F)F)[nH]c(=O)n2)o1 | active: 50.1 µM
36 | O=C1C=C(c2ccc(CO)cc2)C[C@@H](c2ccc3c(c2)OCO3)C1 | inactive
37 | COc1ccc(Cl)cc1NC(=O)c1c(NCc2cccnc2)sc2c1CCCC2 | inconclusive: 89.1 µM [inhibitor, single point]
38 | COc1cc(C=Nc2cccc(C)c2)c(O)c([N+](=O)[O-])c1 | inconclusive: 15.8 µM [inhibitor, partial curve]
